Test results taken from PMC4336329 (PLoS ONE, 2015).
Among all 310,000 compounds or so, about 2,200 (0.71%) showed an effect of 50% or more. The effect is printed as a negative number. Some of the results follow.

Each compound was assayed against human ether-à-go-go-related gene (hERG) potassium channel (human, UniProt Q12809) (assay: primary screen, population patch clamp on CHO cells stably expressing hERG).
Chain of human ether-à-go-go-related gene (hERG) potassium channel (Q12809 whole entry, looked up): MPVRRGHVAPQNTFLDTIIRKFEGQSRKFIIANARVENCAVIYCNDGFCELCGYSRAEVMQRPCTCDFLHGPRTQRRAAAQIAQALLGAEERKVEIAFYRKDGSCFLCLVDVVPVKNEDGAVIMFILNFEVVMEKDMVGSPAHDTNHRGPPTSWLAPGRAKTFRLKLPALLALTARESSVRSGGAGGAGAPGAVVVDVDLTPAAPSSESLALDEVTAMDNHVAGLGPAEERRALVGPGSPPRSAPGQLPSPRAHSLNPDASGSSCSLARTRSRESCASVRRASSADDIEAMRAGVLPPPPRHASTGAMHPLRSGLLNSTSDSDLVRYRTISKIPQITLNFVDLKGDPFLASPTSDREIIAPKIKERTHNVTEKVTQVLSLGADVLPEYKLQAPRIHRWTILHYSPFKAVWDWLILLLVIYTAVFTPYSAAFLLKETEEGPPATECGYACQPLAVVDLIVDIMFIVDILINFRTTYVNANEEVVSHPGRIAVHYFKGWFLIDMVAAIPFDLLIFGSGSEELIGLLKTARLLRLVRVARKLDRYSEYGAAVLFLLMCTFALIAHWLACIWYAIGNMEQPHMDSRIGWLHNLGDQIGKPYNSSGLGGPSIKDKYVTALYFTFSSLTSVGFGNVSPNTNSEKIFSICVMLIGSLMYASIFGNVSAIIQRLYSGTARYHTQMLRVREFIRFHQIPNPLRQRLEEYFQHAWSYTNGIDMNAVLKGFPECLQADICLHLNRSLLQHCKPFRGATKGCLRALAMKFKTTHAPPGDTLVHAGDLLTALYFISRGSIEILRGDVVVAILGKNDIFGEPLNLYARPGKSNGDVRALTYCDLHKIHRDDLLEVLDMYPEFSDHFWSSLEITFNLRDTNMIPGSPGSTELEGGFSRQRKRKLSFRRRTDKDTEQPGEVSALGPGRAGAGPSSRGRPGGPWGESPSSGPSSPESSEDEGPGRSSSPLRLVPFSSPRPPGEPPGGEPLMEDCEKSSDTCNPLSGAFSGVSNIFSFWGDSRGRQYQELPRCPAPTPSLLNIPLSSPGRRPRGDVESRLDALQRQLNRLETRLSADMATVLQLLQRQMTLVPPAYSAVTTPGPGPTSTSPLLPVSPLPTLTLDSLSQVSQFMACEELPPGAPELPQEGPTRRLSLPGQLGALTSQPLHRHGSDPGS
For `CCOC(=O)Cn1c(C)[n+](C)c2cc(Cl)c(Cl)cc21.[I-]`, the “hERG current change (%, negative = inhibition) at 1uM” value was -3.63%. With `Cc1cc(N2C(=O)C(O)=C(C(=O)c3cc4ccccc4o3)C2c2cccc(Cl)c2)no1` (centres unmarked) the “hERG current change (%, negative = inhibition) at 1uM” value was 23.7%. For `O=C(Nc1ccc(Cl)cc1C(=O)NCCN1CCOCC1)c1ccc(Cl)cc1Cl`, the “hERG current change (%, negative = inhibition) at 1uM” value was -4.27%. With `COc1ccc(OCc2ccc(/C=N\NC(=O)c3sccc3C)o2)cc1` the “hERG current change (%, negative = inhibition) at 1uM” value was 12.1%. `O=C1CC[C@@H](CN(Cc2ccccn2)Cc2nc(Cc3ccccc3)no2)N1` was tested, and the “hERG current change (%, negative = inhibition) at 1uM” value was 6.67%. With `N#CCCn1cc(C(=O)Nc2ccccc2Br)c(-c2cc3ccccc3o2)n1` the “hERG current change (%, negative = inhibition) at 1uM” value was 8.34%. In the case of `CC(=O)Oc1ccc(-c2cccc(C(=O)N3CCCCC3)c2)cc1`, the “hERG current change (%, negative = inhibition) at 1uM” value is reported as 11.4%. `CCOC(=O)C1CCN(/C=C2/C(=O)NC(=O)N(Cc3ccco3)C2=O)CC1` was tested, and the “hERG current change (%, negative = inhibition) at 1uM” value was 15.7%. In the case of `CCCS(=O)(=O)N1CCC(C(=O)N2CCN(C(=O)OCC)CC2)CC1`, the “hERG current change (%, negative = inhibition) at 1uM” value is reported as 12.2%. In the case of `CC#CP(=O)(OC)C(O)(CF)c1ccccc1` (centres unmarked), the “hERG current change (%, negative = inhibition) at 1uM” value is reported as 1.58%. For `CCCCn1c(N)c(N(CC)C(=O)c2ccccc2C)c(=O)[nH]c1=O`, the “hERG current change (%, negative = inhibition) at 1uM” value was 9.7%. `Cc1oc(-c2ccc(Cl)cc2)nc1CN1CCCC(C(=O)NC2CC2)C1` (centres unmarked) was tested, and the “hERG current change (%, negative = inhibition) at 1uM” value was -18.2%. `COc1ccccc1Nc1nc(N)nc(CN2CCN(c3ccccc3F)CC2)n1` was tested, and the “hERG current change (%, negative = inhibition) at 1uM” value was -9.68%. `COc1ccc(C2CC(C(F)(F)F)n3nc(C(=O)Nc4c(C)n(C)n(-c5ccccc5)c4=O)c(Cl)c3N2)cc1` (centres unmarked) was tested, and the “hERG current change (%, negative = inhibition) at 1uM” value was 1.48%. With `O=C(NCc1ccc(S(=O)(=O)NC2CCCCC2)s1)c1ccccc1` the “hERG current change (%, negative = inhibition) at 1uM” value was 16.9%. With `COc1ccc(C(NC(=O)N2CC(C)OC(C)C2)C(Cl)(Cl)Cl)cc1F` (centres unmarked) the “hERG current change (%, negative = inhibition) at 1uM” value was 3.07%. With `CC(C)(C)NS(=O)(=O)c1cnc(Cl)c(Cl)c1` the “hERG current change (%, negative = inhibition) at 1uM” value was 9.38%. For `Cc1ccc(NC(=O)c2ccc3snnc3c2)cc1`, the “hERG current change (%, negative = inhibition) at 1uM” value was 7.39%. `CCOC(=O)C1CCCN(c2c(NCCc3ccc(S(N)(=O)=O)cc3)c(=O)c2=O)C1` (centres unmarked) was tested, and the “hERG current change (%, negative = inhibition) at 1uM” value was 6.24%. For `CCCCS(=O)c1c(O)c2ccccc2[nH]c1=O` (centres unmarked), the “hERG current change (%, negative = inhibition) at 1uM” value was 7.52%. With `COc1ccc(C2=NCC(CSc3nccc(=O)[nH]3)S2)cc1` (centres unmarked) the “hERG current change (%, negative = inhibition) at 1uM” value was 11.8%. In the case of `CC1CCC2(CC1)NC(=O)N(CC(=O)c1cn(CCC#N)c3ccccc13)C2=O` (centres unmarked), the “hERG current change (%, negative = inhibition) at 1uM” value is reported as -1.41%. `Cn1c2c(c(=O)[nH]c1=O)C(c1ccc(O)cc1)C1=C(N2)c2ccccc2C1=O` (centres unmarked) was tested, and the “hERG current change (%, negative = inhibition) at 1uM” value was 8.46%. In the case of `Cc1cc(/N=C/N(C)C)on1`, the “hERG current change (%, negative = inhibition) at 1uM” value is reported as 22.8%. In the case of `Cc1ccc(S(=O)(=O)N(C)CC(=O)Nc2nnc(CC(C)C)s2)cc1`, the “hERG current change (%, negative = inhibition) at 1uM” value is reported as 8.58%. With `O=S1(=O)NC(C2CC2c2ccccc2)CCO1` (centres unmarked) the “hERG current change (%, negative = inhibition) at 1uM” value was 10.8%. `CC(O)(CS(=O)(=O)Cc1ccccc1)C(=O)Nc1ccc(C(F)(F)F)cc1` (centres unmarked) was tested, and the “hERG current change (%, negative = inhibition) at 1uM” value was 7.61%. In the case of `C/C(=C\C(=O)c1ccc(C)cc1)Nc1cccc(O)c1`, the “hERG current change (%, negative = inhibition) at 1uM” value is reported as 11.3%. In the case of `COC(=O)Cn1ncc2c3ccccc3n(C)c2c1=O`, the “hERG current change (%, negative = inhibition) at 1uM” value is reported as 10.8%. For `CCCC(C(=O)NC1CCCC1)N(C(=O)c1snc(C(N)=O)c1N)c1ccc(OCC)cc1` (centres unmarked), the “hERG current change (%, negative = inhibition) at 1uM” value was -2.7%. `CC(=O)N1CCc2c(sc(NC(=O)CCS(=O)(=O)c3ccccc3)c2C(N)=O)C1` was tested, and the “hERG current change (%, negative = inhibition) at 1uM” value was 10.6%. With `COc1ccc(-c2csc(N(CCCN(C)C)C(=O)c3ccc(C(C)(C)C)cc3)n2)cc1.Cl` the “hERG current change (%, negative = inhibition) at 1uM” value was 18.1%. For `O=C(CSc1nncn1-c1cccnc1)N(c1ccccc1)c1ccccc1`, the “hERG current change (%, negative = inhibition) at 1uM” value was 12.5%. In the case of `Cc1cc(C)c2sc(NC(=O)c3ccc([N+](=O)[O-])o3)nc2c1`, the “hERG current change (%, negative = inhibition) at 1uM” value is reported as -4.73%. `CCOC(=O)NC(=O)c1cn(N(C)c2ncc(C(F)(F)F)cc2Cl)c(=O)[nH]c1=O` was tested, and the “hERG current change (%, negative = inhibition) at 1uM” value was 20.3%. With `O=C(NNC(=S)NC1CC2C=CC1C2)c1ccncc1` (centres unmarked) the “hERG current change (%, negative = inhibition) at 1uM” value was 15.6%. For `COc1ccc2cc(CN(CC3COCCO3)S(=O)(=O)c3ccc(Cl)cc3)c(=O)[nH]c2c1` (centres unmarked), the “hERG current change (%, negative = inhibition) at 1uM” value was 6.36%. For `CCc1ccc(OCc2nnc(SCC(=O)Nc3cccc(C(=O)N4CCOCC4)c3)o2)cc1`, the “hERG current change (%, negative = inhibition) at 1uM” value was 1.08%. `N#Cc1ccc(N/N=C/c2cn(-c3ccccc3)nc2-c2ccccc2)c([N+](=O)[O-])c1` was tested, and the “hERG current change (%, negative = inhibition) at 1uM” value was 4.22%. In the case of `Cc1nn(-c2ccccc2)c(C)c1/C=N\NS(=O)(=O)c1ccc(Cl)cc1`, the “hERG current change (%, negative = inhibition) at 1uM” value is reported as -2.47%. `O=C(CCNS(=O)(=O)c1ccc(Br)cc1)NCCCSc1ccccc1` was tested, and the “hERG current change (%, negative = inhibition) at 1uM” value was 12.1%. In the case of `O=C(N/N=C/c1ccccc1O)C(=O)N1CCCCCC1`, the “hERG current change (%, negative = inhibition) at 1uM” value is reported as 6.84%. In the case of `COc1cccc(CNCCO)c1OCc1ccc(Cl)cc1.Cl`, the “hERG current change (%, negative = inhibition) at 1uM” value is reported as 13.8%. With `Cc1cc2oc(=O)cc(CN3CCCCC3C)c2c(C)c1Cl` (centres unmarked) the “hERG current change (%, negative = inhibition) at 1uM” value was 7.23%. In the case of `CSc1ccc(C(=O)C2CCCN(CCCn3cccn3)C2)cc1` (centres unmarked), the “hERG current change (%, negative = inhibition) at 1uM” value is reported as -78.3%. For `Cn1c(O)c(C(=O)c2ccccc2Cl)c(=O)n(C)c1=O`, the “hERG current change (%, negative = inhibition) at 1uM” value was 2.11%. For `Cc1cc(C)n(CCC(=O)N2CCc3ccccc32)n1`, the “hERG current change (%, negative = inhibition) at 1uM” value was 5.51%. In the case of `Nc1ncc(Br)cc1S(=O)(=O)NCCC(=O)N1CCN(c2ccccn2)CC1`, the “hERG current change (%, negative = inhibition) at 1uM” value is reported as -14.1%. With `CC(=O)N/C(=C\c1ccc2c(c1)OCO2)C(=O)NC(C(=O)O)c1ccccc1` (centres unmarked) the “hERG current change (%, negative = inhibition) at 1uM” value was 17.4%. `Cc1onc(-c2ccccc2)c1NC(=O)Nc1c(-c2ccccc2)noc1C` was tested, and the “hERG current change (%, negative = inhibition) at 1uM” value was 5.94%. With `CC(=O)c1cccc(NC(=S)NC2CCCCCCC2)c1` the “hERG current change (%, negative = inhibition) at 1uM” value was 11.7%. For `O=C(c1ccccc1)C1CCc2occc2C1=O` (centres unmarked), the “hERG current change (%, negative = inhibition) at 1uM” value was -2.9%. For `Nc1nc(SCC(=O)Nc2ccccc2C(F)(F)F)[nH]c(=O)c1-c1ccccc1`, the “hERG current change (%, negative = inhibition) at 1uM” value was 9.85%. `O=C(Nc1cccc(C(=O)O)c1)/C(=C/c1ccc2c(c1)OCO2)NC(=O)c1cccc(Br)c1` was tested, and the “hERG current change (%, negative = inhibition) at 1uM” value was 9.96%. `Cc1nc(N2CCN(c3ccccc3)CC2)[nH]c(=O)c1C` was tested, and the “hERG current change (%, negative = inhibition) at 1uM” value was 3.65%. In the case of `Cn1cccc1Cc1nnc(SCC(=O)N2CCOCC2)n1-c1ccc(F)cc1`, the “hERG current change (%, negative = inhibition) at 1uM” value is reported as 11.1%.
